Results reported in the RNAGym collection of RNA variant scans (doi:10.1073/pnas.2313332121).
Variants at the background level are over-represented here.

B1: TPR 5TU (parent)
chain: GGAUCUUCUCGAUCUAACAAAAAAGACAAAUCUGCCACAAAGCUUGAGAGCAUCUUCGGAUGCAGAGGCGGCAGCCUUCGGUGGCGCGAUAGCGCCAACGUUCUCAACUAUGACACGCAAAACGCGUGCUCCGUUGAAUGGAGUUUAUCAUG

Variants of: B1
Experiment: polymerase ribozyme fitness, log enrichment relative to wild type (log ratio); higher = more active; in vitro selection for triplet polymerase activity
Method in brief: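 Each subunit of a heterodimeric triplet polymerase ribozyme was mutagenized into a library by PCR, transcribed, and subjected to one round of in vitro selection, run in triplicate. Libraries were annealed with a biotinylated primer, the partner subunit and triplets, incubated frozen at −7 °C, and extended constructs were gel-excised, captured on streptavidin beads and recovered by RT-PCR. Input and output libraries were sequenced on Illumina, keeping genotypes with ≥10 input reads and ≥1 read per output. Fitness is log base 2 of genotype enrichment divided by wild-type enrichment, from inverse-variance-weighted replicate averages.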

Row | Variant | polymerase ribozyme fitness (log ratio)
1 | U33C G50C U53A U55A C57U G71C | ≤ -4.2
2 | A30U G42C A52C G70C C76U C85G G117A U144G | ≤ -4.2
3 | U33A G46A G59A C103A A115G | -4.12
4 | U31A G59A G84A U102G G128C A142C | ≤ -4.2
5 | U33G U55G U109G G136U | ≤ -4.2
6 | U31C G86C C93U A98U | -1.96
7 | C32U C51A A52U C96G G136U | ≤ -4.2
8 | A30U G58C U90G C95A | ≤ -4.2
9 | G34A C35G G50U G68C C76A | ≤ -4.2
10 | U31A G94A | -0.349
11 | G34A C93G G112C | ≤ -4.2
12 | C32U C69G C72U G88C U135G | ≤ -4.2
13 | U31C U45G C57U C76A U109G | ≤ -4.2
14 | U31G U33G G86A U101C C125U G141U | ≤ -4.2
15 | U33C C76U C93A A97U C105G U146G | ≤ -4.2
16 | U33G C35G C54G A142C | ≤ -4.2
17 | U31C C32U G92A U148A | ≤ -4.2
18 | A30U U31A G42C A47U C57A | ≤ -4.2
19 | U31A C51U A73G C95G | -3.09
20 | U33A G74C C87U | ≤ -4.2
21 | C32U A49U | -4.14

Row | Variant | polymerase ribozyme fitness (log ratio)
22 | U31G C76U G92U C103A | ≤ -4.2
23 | U31A U33G A47G U53A G83U G126A A150U | ≤ -4.2
24 | U33G C35U C43A C54A G68A G143A | ≤ -4.2
25 | U31C A47G A49U G94A A119G G136C | -4.04
26 | U33C C35G C51U A52G C103G | ≤ -4.2
27 | U33C A97G | -2.92
28 | C32G A49C | ≤ -4.2
29 | A30U U31C U77C U82C C129G | ≤ -4.2
30 | U33G A121C A137U A147G | ≤ -4.2
31 | U31C A60U A110G C118G U144C | -3.59
32 | U33G A41U G46C C54G G62C G70U C96A A120G G124U | ≤ -4.2
33 | G34A G74U G94A C116G | ≤ -4.2
34 | U31C U33G A39G C114U G126A | ≤ -4.2
35 | U31G C75A U77G G86A C114A C125U | ≤ -4.2
36 | A30U G42A C85U A89G C99A A107C A122U C125A U144C C149A | ≤ -4.2
37 | U31C G84A | 0.831
38 | U33A C57U C79G A89U A97G | ≤ -4.2
39 | C32A A52C G70C A89G A142C | ≤ -4.2
40 | U31C A52C C57U G59C C99U U145G | -3.63
41 | U33A C116U C125G G140U | ≤ -4.2
42 | U31C A49C C79U C96A U111G G143U A150C | ≤ -4.2

Row | Variant | polymerase ribozyme fitness (log ratio)
43 | U33G A49C A91C C93U C125U | ≤ -4.2
44 | U31G G59A G92U | -0.919
45 | U33G A52U C96U | ≤ -4.2
46 | A30U U44C A121G U139A | ≤ -4.2
47 | U31A A66C C85A A106U G128A | ≤ -4.2
48 | C32U C38U C69A U78A C99G U101A U127C | ≤ -4.2
49 | U31C C69U G86U C96U | -3.55
50 | U31A A49C U53A C76G G81A G92A A106G G117A | ≤ -4.2
51 | A30U G70A G143C | ≤ -4.2
52 | U31G G46U C57U C96A A137G | ≤ -4.2
53 | C32G C51U U53A G94A U101A A122G | ≤ -4.2
54 | C32G G58U A60U G92U A137C | ≤ -4.2
55 | C32G C63G C85G C93G A120U U127G U146C A147U | ≤ -4.2
56 | U31C C85A C96G C103A | ≤ -4.2
57 | C32A U33A C85G A89C | ≤ -4.2
58 | U33A C43A A47C G94A C103A | ≤ -4.2
59 | U31G A40G G42A C95A A119U G136A A138U | ≤ -4.2
60 | A30U U56G G84A C96U A113C C125U U134A A142U | ≤ -4.2
61 | C32A C38G C79G C85U | ≤ -4.2
62 | U31G U90G C108G A119C | ≤ -4.2
63 | C32G G94C | -4.18

Row | Variant | polymerase ribozyme fitness (log ratio)
64 | U31A U55G C93G A110C A115U C123G | ≤ -4.2
65 | U31C U77C C93G A110G A115U | ≤ -4.2
66 | G34A C116A G117A | ≤ -4.2
67 | U31A A60G G83U G86U A115U A137U | ≤ -4.2
68 | G34A C95G C96U G100U | ≤ -4.2
69 | U31A A49G U55A G59U C96G | -1.89
70 | U31G A39G G58C A91G | ≤ -4.2
71 | A30U C87U G92A C99G U102C G141C | ≤ -4.2
72 | G34A G58C G92C C105G C114U G126C U134G | ≤ -4.2
73 | G34A G58A U90A G94A U109G | ≤ -4.2
74 | U31G G50A | -1.51
75 | U31C G42U U44C | ≤ -4.2
76 | C32U U44A G86U A91C A110G A113C | ≤ -4.2
77 | U33G C87A A142U | ≤ -4.2
78 | U33A G92A | ≤ -4.2
79 | G34A C43A G92U C118U | ≤ -4.2
80 | U33G A142U U144C | ≤ -4.2
81 | A30U G59U A60U C75A C85G | ≤ -4.2
82 | U31C A39C C57A C76G C95G C131U U144G | ≤ -4.2
83 | U31C C32A C87A | ≤ -4.2
